From ChEMBL document CHEMBL5606460, “ASAP - DENV-2 NS2B-NS3 protease fluorescence single point” (2024) come the findings set out here.

The target of this assay is Genome polyprotein (dengue virus type 2) (UniProt P29990).
The mark [1] stands for this setting: Thailand/16681/1984, Concentration 25.0 uM, Number of replicates 1.0.

About 110 (5.5%) of roughly 2,000 compounds showed an effect of 50% or more. This is one part of the list.

Consider `Cc1cnccc1NC(=O)c1cccc(C(F)(F)F)n1`, for which the inhibition (in general, the drop in the measured response relative to a control, in per cent) (Thailand/16681/1984, Concentration 49.5 uM, Number of replicates 2.0, Standard deviation 0.6191824281934856 %) was determined as 0.024%; the inhibition (Thailand/16681/1984, Concentration 99.01 uM, Number of replicates 2.0, Standard deviation 1.7542746720133946 %) was -0.908%; the inhibition (Thailand/16681/1984, Concentration 198.0 uM, Number of replicates 2.0, Standard deviation 1.379232208237382 %) was -0.988%.
Turning to `Cc1cnccc1NC(=O)c1cc(C2CC2)n(C)n1`, the inhibition runs as follows: (Thailand/16681/1984, Concentration 49.5 uM, Number of replicates 2.0, Standard deviation 1.4459585686715004 %) -4.02%; (Thailand/16681/1984, Concentration 99.01 uM, Number of replicates 2.0, Standard deviation 1.900270069776252 %) -4.04%; (Thailand/16681/1984, Concentration 198.0 uM, Number of replicates 2.0, Standard deviation 1.854374849146193 %) -3.56%.
With `O=Cc1ccc(N2CCC(C(=O)N3CCN(c4ccccc4O)CC3)CC2)cc1`, under setting [1], the inhibition amounted to 15.6%.
Take `CNC(=O)c1cc(Cl)ccc1NS(=O)(=O)Cc1ccccn1`: the inhibition reads like this: (Thailand/16681/1984, Concentration 49.5 uM, Number of replicates 2.0, Standard deviation 0.01719051939583537 %) -6.14%; (Thailand/16681/1984, Concentration 99.01 uM, Number of replicates 2.0, Standard deviation 1.0309591190468002 %) -9.71%.
Regarding `c1ccc2c([C@H]3CCN(Cc4c[nH]cn4)C3)c[nH]c2c1`, the inhibition is -3.79% (Thailand/16681/1984, Concentration 49.5 uM, Number of replicates 2.0, Standard deviation 0.24792192428217835 %); -3.65% (Thailand/16681/1984, Concentration 99.01 uM, Number of replicates 2.0, Standard deviation 0.3699758258218466 %); -3.11% (Thailand/16681/1984, Concentration 198.0 uM, Number of replicates 2.0, Standard deviation 0.08534231061273911 %).
As for `Cc1cc(CO)c2cccc(N3CCCNCC3)c2n1`, the inhibition (Thailand/16681/1984, Concentration 49.95 uM, Number of replicates 2.0, Standard deviation 0.05404827559340029 %) is -0.635% and the inhibition (Thailand/16681/1984, Concentration 99.9 uM, Number of replicates 2.0, Standard deviation 1.5559145545209045 %) turned out to be 2.25%.
Turning to `Cc1cc(CO)c2cccc(Cc3cccc(C(=O)NCc4ccc(S(N)(=O)=O)cc4)c3)c2n1`, the inhibition reads like this: (Thailand/16681/1984, Concentration 49.95 uM, Number of replicates 2.0, Standard deviation 0.214877109175697 %) 5.4%; (Thailand/16681/1984, Concentration 99.9 uM, Number of replicates 2.0, Standard deviation 0.2579967069502225 %) 18%.
Take `O=C(/C=C/c1ccccc1)C(=O)N1CCN(CCc2ccccc2)CC1`: the inhibition reads like this: (Thailand/16681/1984, Concentration 49.5 uM, Number of replicates 2.0, Standard deviation 1.1058163895680901 %) -0.075%; (Thailand/16681/1984, Concentration 99.01 uM, Number of replicates 2.0, Standard deviation 1.051850300329286 %) 3.22%; (Thailand/16681/1984, Concentration 198.0 uM, Number of replicates 2.0, Standard deviation 0.9821847629012651 %) 9.52%.
Turning to `Cc1cc(CO)c2cccc(Cc3cccc(NC(=O)c4cc(C(F)F)nn4C)c3)c2n1`, the inhibition (Thailand/16681/1984, Concentration 49.95 uM, Number of replicates 2.0, Standard deviation 0.39387678731348036 %) worked out at 0.181% and the inhibition (Thailand/16681/1984, Concentration 99.9 uM, Number of replicates 2.0, Standard deviation 0.5891262882617602 %) came to 4.33%.
`Cc1c(C(=O)NCCn2cnnn2)ccc(O)c1NC(=O)c1ccncc1F`: the inhibition was -2.03% (Thailand/16681/1984, Concentration 49.5 uM, Number of replicates 2.0, Standard deviation 1.5154199046184862 %); -1.61% (Thailand/16681/1984, Concentration 99.01 uM, Number of replicates 2.0, Standard deviation 2.1579915683424105 %); -0.852% (Thailand/16681/1984, Concentration 198.0 uM, Number of replicates 2.0, Standard deviation 2.6898834373140286 %).
`CCCCCC(=O)N[C@H](C(=O)NCc1cccc(CN)c1)c1ccc(OCc2ccccc2)cc1`: the inhibition (Thailand/16681/1984, Concentration 49.5 uM, Number of replicates 2.0, Standard deviation 0.6286197397778024 %) was -3.44%; the inhibition (Thailand/16681/1984, Concentration 99.01 uM, Number of replicates 2.0, Standard deviation 10.030102962525104 %) was found to be 65.8%; the inhibition (Thailand/16681/1984, Concentration 198.0 uM, Number of replicates 2.0, Standard deviation 0.2962336766184579 %) was determined as 98.7%.
For the molecule `Cc1cc(CO)c2cccc(NC(=O)[C@@H](N)c3ccsc3)c2n1`, the inhibition (Thailand/16681/1984, Concentration 49.95 uM, Number of replicates 2.0, Standard deviation 0.5925041052888173 %) worked out at 7.24% and the inhibition (Thailand/16681/1984, Concentration 99.9 uM, Number of replicates 2.0, Standard deviation 1.8362903107997446 %) stood at 13.9%.
For the molecule `C[C@H]1CCC[C@H](C)N1CCNC(=O)C1CCN(c2ccc(C=O)cc2)CC1`, the inhibition under setting [1] is 12.4%.
For `Cc1c(C2CCNCC2)cnn1Cc1nnc(-c2ccccc2)o1`, the inhibition runs as follows: (Thailand/16681/1984, Concentration 49.5 uM, Number of replicates 2.0, Standard deviation 2.3622904402078886 %) -2.18%; (Thailand/16681/1984, Concentration 99.01 uM, Number of replicates 2.0, Standard deviation 1.8884466143634908 %) -1.86%; (Thailand/16681/1984, Concentration 198.0 uM, Number of replicates 2.0, Standard deviation 1.0159128732525171 %) -0.491%.
In the case of `Cc1cc(CO)c2cccc(Cc3ccccc3C(=O)NCc3ccc(S(N)(=O)=O)cc3)c2n1`, the inhibition runs as follows: (Thailand/16681/1984, Concentration 49.95 uM, Number of replicates 2.0, Standard deviation 1.5695359944911405 %) 4.94%; (Thailand/16681/1984, Concentration 99.9 uM, Number of replicates 2.0, Standard deviation 2.135114838489864 %) 9.8%.
On to `C[C@@H](Cc1c[nH]c2ccccc12)N1CC[C@H](c2c[nH]c3ccccc23)C1`, for which the inhibition by setting is: (Thailand/16681/1984, Concentration 49.5 uM, Number of replicates 2.0, Standard deviation 1.5325996765679513 %) 4.08%; (Thailand/16681/1984, Concentration 99.01 uM, Number of replicates 2.0, Standard deviation 1.612806815158123 %) 8%; (Thailand/16681/1984, Concentration 198.0 uM, Number of replicates 2.0, Standard deviation 0.01571639122231834 %) 12.5%.
Take `Cc1cc(CO)c2cccc(Cc3ccccc3NC(=O)C[C@H]3CCCN3)c2n1`: the inhibition runs as follows: (Thailand/16681/1984, Concentration 49.95 uM, Number of replicates 2.0, Standard deviation 2.3110961437297597 %) -1.74%; (Thailand/16681/1984, Concentration 99.9 uM, Number of replicates 1.0) -1.01%.
Regarding `O=Cc1ccc(N2CCC(C(=O)N3CCC[C@H](C(F)(F)F)C3)CC2)cc1`, the inhibition under setting [1] was 17.3%.
For the molecule `CC(C)(CC(=O)Nc1cccc(CN)c1)NC(=O)OCc1ccccc1`, the inhibition by setting is: (Thailand/16681/1984, Concentration 49.5 uM, Number of replicates 2.0, Standard deviation 0.39081272196345046 %) -3.14%; (Thailand/16681/1984, Concentration 99.01 uM, Number of replicates 2.0, Standard deviation 0.20295410290675317 %) -2.7%; (Thailand/16681/1984, Concentration 198.0 uM, Number of replicates 2.0, Standard deviation 0.7497565258938735 %) -1.21%.
Consider `Cc1cc(CO)c2cccc(Cc3cccc(NC(=O)CCC4CCNCC4)c3)c2n1`, for which the inhibition (Thailand/16681/1984, Concentration 49.95 uM, Number of replicates 2.0, Standard deviation 1.9905342893580933 %) is 36.1% and the inhibition (Thailand/16681/1984, Concentration 99.9 uM, Number of replicates 2.0, Standard deviation 0.13016565259146895 %) was 90.2%.
